In PubChem BioAssay (NCATS):
Inconclusive means that the source gave no clear call. Such entries were picked first, then a sample of the others. For part of these data: No potency is given beside an inconclusive call; the fits are too rough. For part of these data: “Side channel” marks fits to a control or component signal instead of the main read-out. Active and inactive are the calls of the source. Unless noted, the call rests on the fitted dose curve; in most records, active means well fitted curve in the direction sought with a large enough effect; inconclusive means small, poorly fitted or top-dose-only effect, or another doubt; inactive means no such curve, though single readings can be large; an effect the other way counts as inactive or inconclusive.

Tests used:
[1] = biological target: Dual specificity protein kinase CLK4 (Homo sapiens) (UniProt Q9HAZ1); test: qHTS Assay for Inhibitors of CDC-like Kinase 4 (Kinase-Glo Assay) (AID 1770); further: nearly all actives have a fitted effect of over 65% in size; further: potency means the concentration at half of the fitted maximal effect
Sequence of UniProt Q9HAZ1 (Q9HAZ1 whole entry, looked up): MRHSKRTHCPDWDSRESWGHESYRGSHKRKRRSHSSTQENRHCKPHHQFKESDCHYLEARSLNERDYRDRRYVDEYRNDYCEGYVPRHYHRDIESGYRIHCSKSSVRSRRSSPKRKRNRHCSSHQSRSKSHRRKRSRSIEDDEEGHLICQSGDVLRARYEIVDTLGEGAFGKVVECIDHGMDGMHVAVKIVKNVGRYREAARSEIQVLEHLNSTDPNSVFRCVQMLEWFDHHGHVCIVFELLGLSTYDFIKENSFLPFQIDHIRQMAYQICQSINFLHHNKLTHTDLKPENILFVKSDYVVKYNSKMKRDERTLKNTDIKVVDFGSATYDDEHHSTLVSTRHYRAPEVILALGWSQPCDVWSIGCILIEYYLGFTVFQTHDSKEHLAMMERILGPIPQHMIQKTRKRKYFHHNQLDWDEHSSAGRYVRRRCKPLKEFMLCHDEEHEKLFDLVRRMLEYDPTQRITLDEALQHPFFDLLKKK
In short: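 Clk4 25 nM, RS peptide 100 uM, ATP 1 uM, pH 7.5 Tris, 10 mM MgCl2, 2.5 mM DTT; 4.5 h RT; ATP depletion read by Kinase-Glo luminescence.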

[2] = biological target: Dual specificity protein kinase CLK4 (Homo sapiens) (UniProt Q9HAZ1); test: qHTS Assay for Inhibitors of CDC-like Kinase 4 (ADP-FP Assay) (AID 1795); further: potency means the concentration at half of the fitted maximal effect;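 further: recombinant human CLK4 phosphorylating RS repeat peptide at 1 µM ATP; nearly all actives have a fitted effect of over 60% in size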
In short: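 Kinase activity was followed as ADP output, converted from fluorescence polarization with a calibration curve. Reactions ran one hour at low ATP (1 uM) with RS peptide substrate.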

[3] = qHTS Assay for Identification of Small Molecule Agonists for Hypoxia Response Element Signaling Pathway (AID 914; active means well fitted activation curve with a large enough effect in the signal ratio, with a control signal flat, not every such curve was filed as active; inconclusive means small, poorly fitted or top-dose-only effect, or effect the other way, or a change in a side signal; the % refers to the signal ratio; further: potency means the concentration at half of the fitted maximal effect; on activation: top concentration of the series differs between compounds; % of control where 0% means no effect); settings: ME-180 HRE-bla reporter, beta-lactamase ratio, CoCl2, 17 h; activation: hits give high values
In short: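 qHTS titration; ME-180 HRE-bla cells; EC50 CoCl2 co-treatment, 17 h at 37 degrees Celsius; CCF4 dye, ex 405nm, em 460nm and 530nm; %Activity from ratio; AC50.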

[4] = biological target: Dual specificity protein kinase CLK4 (Homo sapiens) (UniProt Q9HAZ1); test: qHTS Assay for Inhibitors of CDC-like Kinase 4 (ADP-Glo Assay) (AID 1771); further: nearly all actives have a fitted effect of over 70% in size; further: potency means the concentration at half of the fitted maximal effect
In short: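 In this ADP-Glo format, 1 uM ATP and 100 uM RS peptide served as substrates for 25 nM Clk4 in Mg2+/EGTA/DTT/Triton buffer; reactions ran 1 hr at room temperature before luminescent ADP quantification.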

[5] = NFAT Signaling Pathway (AID 444; active means well fitted curve in either direction with a large enough effect, not every such curve was filed as active; inconclusive means small, poorly fitted or top-dose-only effect, or another doubt;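 further: carbachol stimulus at about its EC50 of 1 µM final; on the % scale 0 is the no-effect control and ±100 the full control effect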); settings: Jurkat NFAT-bla M1, carbachol, beta-lactamase ratio, 5 h; at 17.2 µM (top of the series) unless noted
In short: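 Jurkat cells with NFAT-driven β-lactamase reporter and co-expressed M1 receptor, stimulated with carbachol (final 1 uM, ~EC50), compound titration, 5 h at 37 °C. CCF4 loaded 1 h at RT; 460/530 nm ratio gave %activity and AC50.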

[6] = biological target: Ubiquitin carboxyl-terminal hydrolase 1 (Homo sapiens) (UniProt O94782); test: Inhibitors of USP1/UAF1: Pilot qHTS (AID 504865);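 further: rhodamine fluorescence freed from ubiquitin-rhodamine substrate followed over time; potency means the concentration at half of the fitted maximal effect; nearly all actives have a fitted effect of over 35% in size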
Sequence of UniProt O94782 (O94782 whole entry, looked up): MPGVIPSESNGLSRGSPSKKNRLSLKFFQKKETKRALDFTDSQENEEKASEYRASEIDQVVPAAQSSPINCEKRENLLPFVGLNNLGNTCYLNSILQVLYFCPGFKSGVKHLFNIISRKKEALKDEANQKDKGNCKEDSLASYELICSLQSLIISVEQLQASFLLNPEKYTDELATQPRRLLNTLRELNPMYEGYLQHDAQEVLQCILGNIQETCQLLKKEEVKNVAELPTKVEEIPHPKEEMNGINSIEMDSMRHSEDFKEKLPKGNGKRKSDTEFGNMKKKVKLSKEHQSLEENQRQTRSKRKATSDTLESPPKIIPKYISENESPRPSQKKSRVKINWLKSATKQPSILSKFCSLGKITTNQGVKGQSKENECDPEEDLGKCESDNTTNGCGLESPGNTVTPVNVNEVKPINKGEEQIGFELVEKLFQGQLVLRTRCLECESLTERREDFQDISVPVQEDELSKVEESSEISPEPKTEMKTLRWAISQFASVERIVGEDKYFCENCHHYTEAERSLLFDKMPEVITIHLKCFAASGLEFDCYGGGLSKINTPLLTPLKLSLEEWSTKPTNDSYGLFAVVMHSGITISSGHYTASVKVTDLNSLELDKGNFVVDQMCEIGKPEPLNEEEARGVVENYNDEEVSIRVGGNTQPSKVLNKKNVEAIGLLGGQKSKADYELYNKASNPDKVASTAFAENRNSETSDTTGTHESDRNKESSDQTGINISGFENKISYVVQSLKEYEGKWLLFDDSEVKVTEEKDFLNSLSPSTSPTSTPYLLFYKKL
In short: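 Enzyme-free wells gave the negative control, while test wells held 1nM USP1/UAF1 preincubated with compound for 15 min at room temperature. Ub-Rho at 150nM final started the reaction, and fluorescence at 480/540 nm was recorded kinetically.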

[7] = biological target: Mitogen-activated protein kinase 10 (Mus musculus) (UniProt Q61831); test: JNK3 AlphaScreen Assay (AID 530; active means well fitted curve in either direction with a large enough effect, not every such curve was filed as active; inconclusive means small, poorly fitted or top-dose-only effect, or another doubt;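 further: kinase came from lysate of stimulated human HepG2 cells; signal reports phosphorylation of biotinylated GST-cJun 1-79 at Ser73 with 10 µM ATP; on the % scale 0 is the no-effect control and ±100 the full control effect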); settings: JNK3 lysate, c-Jun phosphorylation; activity change, negative = inhibition: at 57.1 µM (top of the series)
In short: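 HepG2 lysate (IL-1b/TNFa pre-activated) + biotin-GST-cJun 1-79 + anti-pSer73 cJun; cpd titration, 15 min RT; ATP 10 uM start; Tris pH 7.6, MgCl2, DTT, vanadate; beads in EDTA buffer; AlphaScreen.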

[8] = AP1 Signaling Pathway (AID 357; active means well fitted curve in either direction with a large enough effect, not every such curve was filed as active; inconclusive means small, poorly fitted or top-dose-only effect, or another doubt;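 further: ME-180 reporter cells stimulated with EGF at its EC50 level; top concentration of the series differs between compounds; on the % scale 0 is the no-effect control and ±100 the full control effect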); settings: ME-180 AP-1-bla reporter, EGF-induced, beta-lactamase ratio, 5 h; at 17.2 µM (top of the series) unless noted
In short: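 AP-1-bla ME-180 cells, Opti-MEM + 0.5% dialyzed FBS, plated overnight 37 °C. Cpd titration + EC50 EGF, 5 h 37 °C. CCF4 2.5 h RT; ex 405, em 460/530 ratio → %activity, AC50.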

[9] = Stat Signaling Pathway (AID 446; active means well fitted curve in either direction with a large enough effect, not every such curve was filed as active; inconclusive means small, poorly fitted or top-dose-only effect, or another doubt;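 further: ME-180 cervical cancer cells given 40 pM IL-6 alongside compound; SIE-controlled beta-lactamase reporter measured as 460/530 nm FRET emission ratio; top concentration of the series differs between compounds; on the % scale 0 is the no-effect control and ±100 the full control effect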); settings: ME-180 (cervical carcinoma) SIE beta-lactamase reporter, IL-6 stimulated, 5 h; at 7.69 µM (top of the series) unless noted
In short: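 Compound effects on IL-6-induced STAT reporter activity were measured in ME-180 cells. After overnight culture, cells were co-treated with 40 pM IL-6 for 5 hrs before beta-lactamase substrate loading at room temperature.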

[10] = biological target: Cytochrome P450 3A4 (Homo sapiens) (UniProt P08684); test: qHTS Assay for Inhibitors and Substrates of Cytochrome P450 3A4 (AID 884); further: potency means the concentration at half of the fitted maximal effect; nearly all actives have a fitted effect of over 50% in size
Sequence of UniProt P08684 (P08684 whole entry, looked up): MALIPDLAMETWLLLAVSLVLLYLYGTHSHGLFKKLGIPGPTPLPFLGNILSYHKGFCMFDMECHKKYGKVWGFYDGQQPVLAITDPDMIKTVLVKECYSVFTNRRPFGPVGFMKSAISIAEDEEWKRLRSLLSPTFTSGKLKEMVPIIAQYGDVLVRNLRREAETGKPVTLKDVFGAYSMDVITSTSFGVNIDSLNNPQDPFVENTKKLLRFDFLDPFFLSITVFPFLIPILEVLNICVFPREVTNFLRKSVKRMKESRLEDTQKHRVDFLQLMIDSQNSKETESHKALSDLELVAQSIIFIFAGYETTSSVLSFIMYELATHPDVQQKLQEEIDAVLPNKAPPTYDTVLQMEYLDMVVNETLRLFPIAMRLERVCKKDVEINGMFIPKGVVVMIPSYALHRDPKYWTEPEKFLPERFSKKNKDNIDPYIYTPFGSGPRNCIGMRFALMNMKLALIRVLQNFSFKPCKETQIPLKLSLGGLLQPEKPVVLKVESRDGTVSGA
In short: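 Luminescent readout of luciferin produced by CYP3A4 (20 nM) dealkylation of Luciferin-PPXE, 25 uM (its KM). NADPH-driven reaction ran 60 min at RT after 10 min compound preincubation; data scaled to 57 uM ketoconazole as 100% inhibition.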

[11] = biological target: Cytochrome P450 1A2 (Homo sapiens) (UniProt P05177); test: p450-cyp1a2 (AID 410; calls by dose curve; further: potency means the concentration at half of the fitted maximal effect)
Sequence of UniProt P05177 (P05177 whole entry, looked up): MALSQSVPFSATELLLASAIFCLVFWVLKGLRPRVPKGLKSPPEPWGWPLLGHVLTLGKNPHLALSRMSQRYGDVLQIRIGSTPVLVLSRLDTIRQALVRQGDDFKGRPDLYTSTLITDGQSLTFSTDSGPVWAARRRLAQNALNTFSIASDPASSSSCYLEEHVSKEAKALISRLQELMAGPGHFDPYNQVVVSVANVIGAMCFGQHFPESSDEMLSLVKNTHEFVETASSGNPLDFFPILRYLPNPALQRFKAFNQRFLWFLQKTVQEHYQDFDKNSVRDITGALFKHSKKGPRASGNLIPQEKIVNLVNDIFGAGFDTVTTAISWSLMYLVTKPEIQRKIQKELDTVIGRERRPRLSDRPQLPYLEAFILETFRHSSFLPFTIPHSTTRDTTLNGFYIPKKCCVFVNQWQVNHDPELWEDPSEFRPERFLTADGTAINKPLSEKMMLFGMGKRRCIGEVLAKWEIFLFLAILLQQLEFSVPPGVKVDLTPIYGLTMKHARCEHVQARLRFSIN
In short: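 Read-out is luminescence from luciferin produced by CYP1A2 demethylation of Luciferin-ME (100uM, at Km). Detection reagent stopped the 60 min NADPH-dependent reaction; signals were normalized to 57 uM furafylline.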

[12] = biological target: Cytochrome P450 2C19 (Homo sapiens) (UniProt P33261); test: qHTS Assay for Inhibitors and Substrates of Cytochrome P450 2C19 (AID 899); further: potency means the concentration at half of the fitted maximal effect; nearly all actives have a fitted effect of over 60% in size
Sequence of UniProt P33261 (P33261 whole entry, looked up): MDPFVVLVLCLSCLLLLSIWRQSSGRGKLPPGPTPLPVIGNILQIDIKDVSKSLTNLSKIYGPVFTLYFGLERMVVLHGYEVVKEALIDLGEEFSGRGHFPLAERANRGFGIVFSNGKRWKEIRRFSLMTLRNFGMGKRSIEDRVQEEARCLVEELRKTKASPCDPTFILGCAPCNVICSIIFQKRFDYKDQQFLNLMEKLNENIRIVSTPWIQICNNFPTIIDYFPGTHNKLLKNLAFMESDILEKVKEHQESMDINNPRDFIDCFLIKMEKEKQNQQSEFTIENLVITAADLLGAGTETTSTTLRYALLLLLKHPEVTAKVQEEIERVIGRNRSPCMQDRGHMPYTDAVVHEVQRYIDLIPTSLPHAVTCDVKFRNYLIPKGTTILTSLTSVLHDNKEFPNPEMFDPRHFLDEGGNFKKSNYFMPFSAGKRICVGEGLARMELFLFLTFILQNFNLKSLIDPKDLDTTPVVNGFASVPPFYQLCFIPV
In short: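 5 nM human CYP2C19 with 10uM Luciferin-H EGE (at KM) in 50mM KPO4, compound preincubated 10 min at 37C, then NADPH regeneration for 60 min at 37C. Luciferin read by luminescence after detection reagent; normalized to 57uM ketoconazole as full inhibition.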
Tags describe the fitted curve by direction and shape or compound fluorescence and quenching.

In the case of `COc1ccc2[nH]cc(CCNc3cc(-c4ccc(C(=O)N(C)C)cc4)ncn3)c2c1`, the Potency [1] is reported as active: 10 µM and the Potency [2] is reported as inconclusive [falling, partial curve].

For `CN1CCN(c2ncnc3ccc(-c4ccc(C(=O)N(C)C)cc4)cc23)CC1`, the Potency [3] was inconclusive [activator, single point], the Potency [1] was inconclusive [falling, partial curve] and the Potency [4] was inconclusive [falling, single point].

For `Cc1cnc(CNc2cc(-c3ccc(N(C)C)cc3)ncn2)cn1`, the Potency [1] was active: 5.01 µM and the Potency [2] was inconclusive [falling, partial curve].

For `CS(=O)(=O)Nc1cccc(-c2cc(Nc3ccccc3)ncn2)c1`, the activation [3] was inactive: -13.8%, the Potency [1] was inconclusive [falling, partial curve] and the Potency [2] was inconclusive [falling, partial curve].

For `Cc1nc2cnc(Oc3ccccc3)nc2n(Cc2cccs2)c1=O`, the activity change, negative = inhibition [5] was inactive: 20.1% [at 7.69 µM], the activation [3] was inconclusive: -29.9% and the Potency [1] was “inactive”. The Potency [6] was inconclusive [inhibitor, single point].

In the case of `Cn1c(=O)cnc2cnc(OCc3ccccc3)nc21`, the Potency [7] is reported as “inactive”, the Potency [1] is reported as inconclusive [falling, partial curve] and the Potency [2] is reported as inconclusive [falling, single point].

In the case of `O=c1c(-c2ccc(F)cc2)nc2cnc(N3CCNCC3)nc2n1Cc1ccc(F)cc1`, the activity change, negative = inhibition [8] is reported as active: 115% [activator] [at 7.69 µM], the activity change, negative = inhibition [5] is reported as active: 163% [activator] [at 7.69 µM] and the activity, negative = inhibition [9] is reported as inconclusive: 293% [activator]. For the same compound, the Potency [10] was active: 7.94 µM, the Potency [3] was inconclusive [fluorescent, side channel, single point] and the Potency [1] was “inactive”.

For `O=c1c(-c2ccccc2)nc2cnc(N3CCOCC3)nc2n1C1CC1`, the Potency [11] was active: 3.16 µM, the Potency [1] was “inactive” and the Potency [2] was “inactive”.

With `COc1cccc(Cn2c(=O)c(-c3cccs3)nc3cnc(N(C)C)nc32)c1` the Potency [12] was inconclusive [inhibitor, full curve, poor fit], the activation [3] was inconclusive: 31.9% [activator] and the Potency [1] was “inactive”. The Potency [4] was “inactive”.
